# Experimental data taken from patent US20170304236A1, “ANTIALLERGIC AGENT” (TOHOKU UNIVERSITY, priority 2015, published 2017).
# System: TSLP mRNA
# Test: TSLP mRNA expression in stimulated HaCaT cells (real-time PCR)
# Details: TNF-α 100 ng/ml + IL-4 10 ng/ml stimulation, 16D10 10 and 100 μM, 4 hours
# Protocol: HaCaT cells were suspended in 10% FBS-containing Dulbecco's MEM so as to have a cell count of 1.0×10^5 cells/mL, and the suspension was seeded into each well of a 12-well plate (Falcon (trademark)) at 1,000 μl per well, followed by culture at 37° C. under saturated humidity in the presence of 5% CO2 until the cells achieved 80% to 90% confluence in each well. The culture solution was removed, and the cells were washed once with PBS that had been warmed to 37° C. After that, 1 ml of 10% FBS-DMEM containing 16D10 (10 and 100 μM) and any of various stimulants [Poly(I:C) (50 μg/ml) (A), TNF-α (100 ng/ml) (B), and TNF-α (100 ng/ml)+IL-4 (10 ng/ml) (C)] was added, followed by further culture at 37° C. under saturated humidity in the presence of 5% CO2 for 4 hours. The final concentration of DMSO in each group was set to 0.1%.
# After the culture, the culture solution was removed, and the cells were washed twice with PBS. After that, total RNA was extracted with RNAiso Plus. A reverse transcription reaction was performed with PrimeScript (trademark) RT Master Mix (Perfect Real Time) in accordance with an accompanying protocol. […] The threshold cycle (Ct) value of each sample was calculated by a 2nd derivative maximum method, and a relative calibration curve was created to confirm that amplification efficiency under PCR reaction conditions for each gene was close to 100%. […]
smiles,measurement,value
"COc1ccc(OC)c(/C=C/C(=O)c2cc(OC)c(OC)cc2CCNC(C)=O)c1 [16D10, (E)-N-[2-[2-[3-(2,5-dimethoxyphenyl)-1-oxo-2-propen-1-yl]-4,5-dimethoxyphenyl]ethyl]acetamide]",expression of TSLP mRNA,suppressed
